Data as given in PubChem BioAssay (NCI).
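Five concentrations, 48 hours, 96-well plates. Here, GI50 denotes the concentration required for 50% inhibition of growth. TGI marks complete inhibition of growth.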

System: NCI-H322M lung
Test: inhibition of tumour cell growth, NCI panel, 48 h

Compound | GI50 | TGI
COc1cc2nc(Cl)nc(Nc3cccc(C4=Nc5c(N)nc(N)nc5NC(c5ccc(Cl)cc5)C4)c3)c2cc1OC (centres undefined) | 2.93 µM | 9.91 µM
COc1cc(OC)cc(C(=O)Nc2cccc(C#Cc3cccc4[nH]nc(N)c34)c2)c1 | 3.39 µM | 24.3 µM
